# Reference: the supplement of paper PMC3334620
# Over roughly 33,000 sequences, “E-score (-0.5 to 0.5)” has its median near -0.016; the highest 2% begin near 0.32. Some of the results follow.
# Biological target: T1, Stp1 (UniProt B3LFK1)
# T1 sequence: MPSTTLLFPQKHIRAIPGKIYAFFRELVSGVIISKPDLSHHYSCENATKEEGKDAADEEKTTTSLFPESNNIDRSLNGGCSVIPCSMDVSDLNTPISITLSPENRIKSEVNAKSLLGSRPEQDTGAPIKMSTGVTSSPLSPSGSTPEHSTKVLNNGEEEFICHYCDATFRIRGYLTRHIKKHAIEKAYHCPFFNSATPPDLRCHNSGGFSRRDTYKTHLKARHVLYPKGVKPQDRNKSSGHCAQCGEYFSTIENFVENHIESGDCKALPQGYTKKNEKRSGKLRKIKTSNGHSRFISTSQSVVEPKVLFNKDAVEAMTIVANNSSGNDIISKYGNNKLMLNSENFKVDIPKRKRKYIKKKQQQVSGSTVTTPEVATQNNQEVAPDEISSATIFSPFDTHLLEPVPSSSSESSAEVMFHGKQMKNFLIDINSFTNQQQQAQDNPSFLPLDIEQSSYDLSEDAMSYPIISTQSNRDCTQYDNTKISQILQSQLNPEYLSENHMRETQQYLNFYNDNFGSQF
# Test: PBM E-score (8-mer binding enrichment) (E-score (-0.5 to 0.5)); higher = stronger / more preferred TF binding; most listed sequences are background and not binding sites
# Settings: protein concentration: 200 nM; construct: GST-full length
# Outline: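 Universal all-10-mer Agilent arrays, double-stranded by primer extension on fresh or once-stripped slides, were probed with about 100-200 nM GST-tagged yeast transcription factors made by PURExpress. Fluorescent anti-GST detected bound protein, and masliner normalised the scans. E-scores from the Universal PBM Analysis Suite were given to each ungapped eight-base word pooled with its reverse complement.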
row,Sequence,PBM E-score
1,CCCACTCA,-0.115
2,CCTAGTTA,-0.025
3,CATCGTAG,-0.128
4,AAAGCCAG,-0.168
5,AATTCGGG,-0.0912
6,CTGCTATC,-0.00394
7,GGTCTTGA,-0.178
8,CTGAGGAA,-0.14
9,AGGGTTAA,-0.234
10,ACCTGATG,-0.102
11,AGCAAGTA,-0.00665
12,ATAGTATC,0.259
13,AATGGACC,0.0385
14,ACAACCCG,-0.168
15,GGCCGCTA,0.0203
16,ACATTTGC,0.0875
17,ACAGAATG,0.0711
18,AAAACGCA,0.056
19,CTAGGCCA,-0.219
20,TCTTGAAA,0.0933
21,ATACCCAT,-0.0185
22,CTTTGTAC,-0.0603
23,AACACGTG,0.224
24,ACTGCCAG,-0.075
25,GGTCTTAA,-0.189

row,Sequence,PBM E-score
1,CCCCGTCC,-0.319
2,AAGCCGCG,0.418
3,CCGCATGA,0.203
4,ACGCCATA,0.134
5,CCTCTAGC,-0.189
6,CAGCCAGG,-0.162
7,CATGACAA,0.0222
8,GAGAATAC,0.184
9,CATCCTAA,-0.0149
10,ACACTACT,-0.00666
11,CGAATCCC,-0.0512
12,AAATTCAA,0.0716
13,TGACTTAA,-0.00308
14,ACACAAGC,0.0856
15,CATAACAC,0.0418
16,CACCATAG,0.0197
17,CCAACCTA,-0.175
18,AGATGCGG,0.221
19,GGCCAAAA,0.117
20,GACATTTA,-0.0559
21,CATCATCA,0.0728
22,AGCACTCA,-0.14
23,CGTACACG,0.0507
24,AAGGGCGG,-0.0196
25,ACCGTAGA,0.0293

row,Sequence,PBM E-score
1,GTACTTCA,0.164
2,AACCACCG,-0.0618
3,ACGCGGAA,0.151
4,CTATCGAA,-0.0316
5,CAGCTGCG,-0.0729
6,ACGACACC,-0.0079
7,CATGCAAA,0.112
8,CATCTCAG,-0.0765
9,CAAATGGC,0.199
10,ACGATGAA,0.0706
11,ACCCGGTG,-0.183
12,CCGGTATC,-0.149
13,AACGCAGG,-0.153
14,AAAGAAGA,0.0324
15,ACGGTGGC,-0.115
16,CGTTGGAC,-0.131
17,GACTTGGA,-0.246
18,ATTGTCCC,-0.286
19,GATAACCC,-0.281
20,CGACGAAA,0.102
21,AATTCCAT,0.134
22,CGGTCTGC,-0.0402
23,CTCTCTTC,-0.147
24,AAGCTCAA,-0.135
25,GCTGAAGC,-0.0652

row,Sequence,PBM E-score
1,AATACACG,0.0447
2,CGAGGCGA,0.289
3,AGCCCTCC,-0.283
4,CGACATGC,0.156
5,AGTTACGA,0.113
6,AGGCGGAC,-0.0896
7,AACTTTAG,-0.0306
8,GACACGTC,-0.153
9,CTTCAAGA,0.0445
10,AGCGAGCG,0.0624
11,GATATTAA,0.163
12,GATCTTAC,0.029
13,GCACGCGC,0.239
14,ACGAGATC,-0.0452
15,ACGCTCCG,-0.177
16,GATCTTAA,0.0843
17,AGGCTTCG,-0.0078
18,AGTTCGTC,0.049
19,CACCGGCA,0.105
20,CTGCGTCA,-0.0654
21,CGCGTCCC,-0.0263
22,ATTGCCTA,-0.11
23,ATGTATAG,-0.0149
24,CTTGCCTA,-0.0283
25,AGACTGAC,-0.226

row,Sequence,PBM E-score
1,ACTGGGCT,-0.308
2,GTTAAGGA,-0.0109
3,AGTAATTG,0.109
4,AGTCAATC,0.0077
5,AAGAGGGT,-0.207
6,ATCCCAAT,0.0705
7,AGAGCGCA,-0.322
8,AACTCGAC,-0.0357
9,AGTGCCTA,0.21
10,ACTGCGAG,-0.217
11,AATTTGGG,-0.0818
12,CACCTAGG,-0.314
13,AAGTGCAG,-0.243
14,ACCCGATC,-0.248
15,CGGGACGC,-0.108
16,AAGAGCTC,-0.181
17,ACAACTGT,-0.164
18,CTAGCATC,-0.0558
19,GTGGCAAA,0.117
20,ATGGGGGG,-0.329
21,ACGTGCAC,0.0946
22,GCCTGAGC,-0.103
23,ACTACGGG,-0.222
24,AGGTCTCC,-0.155
25,CAATAGAA,-0.0423

row,Sequence,PBM E-score
1,ACTACACC,-0.082
2,CTCTCTAA,-0.0711
3,CTGAGCCC,-0.108
4,ATCTCCTA,-0.214
5,CTTTCGGA,-0.0677
6,AGGAACGC,-0.076
7,GAGCATTA,-0.0495
8,AGTGTGTG,-0.093
9,GAGGAACC,-0.112
10,CATCAATC,0.0339
11,CCGCTTGC,0.214
12,CGCCTTCA,0.0777
13,AACTGGAA,0.00044
14,GGTCTTAC,-0.134
15,ACTTGGCC,-0.172
16,AGCTCAGA,-0.117
17,CAGGTTCC,-0.223
18,ATGGACCG,-0.0868
19,CCATACCA,-0.0553
20,CTTGTGAC,0.0615
21,CATGGTTC,0.0473
22,ATTGAGGC,0.146
23,ATACAGCC,-0.0239
24,CACCCCGC,0.137
25,AATATGGA,0.0277

row,Sequence,PBM E-score
1,ACGCACCT,-0.233
2,AAAGACGG,0.098
3,AACGTGTA,-0.198
4,GGGCAATA,0.0993
5,ATATCAGC,0.0273
6,CGACTTTA,-0.124
7,TGAATGAA,0.0194
8,AGATACCT,-0.132
9,CTAGAAAG,0.117
10,GCGGTGTA,-0.137
11,AGATTACT,0.0619
12,ATTACATA,0.072
13,TCATTACA,0.147
14,CTAAACTC,0.0286
15,CAGTGCGG,0.213
16,CTTTCTAC,0.0838
17,GAACAACA,0.0563
18,AGAAGACG,0.0888
19,CGGGCAGA,-0.024
20,CACTCAAA,0.0964
21,AGTCTATA,-0.0565
22,AATTAAAG,-0.108
23,CTCAGCAA,0.148
24,AACACATG,0.0952
25,CAGGGCTA,-0.177

row,Sequence,PBM E-score
1,AATCAAAG,0.00777
2,ATGATGAC,-0.135
3,ACCGTGGC,0.0324
4,AAGCGAAA,0.0713
5,AACGAAGT,-0.191
6,GACGGCGA,0.4
7,ACATTCCG,-0.129
8,CCTTCCTA,-0.168
9,ACCATCTG,-0.0319
10,CGCGCGAA,0.129
11,AGAACGCG,0.0583
12,CCAGGAAA,-0.0536
13,GCGTTTAA,0.024
14,CCGCCTTC,-0.175
15,AAGTGCGA,-0.111
16,CCCGAAGG,-0.0669
17,CGCTTCTA,0.0934
18,GCACACTA,-0.0408
19,TGCTAGCA,-0.0699
20,AGTTAAAG,0.0606
21,CCACTGTC,-0.245
22,ACTGCGAA,0.02
23,AGGGTAGA,-0.106
24,GGTACGGA,0.0641
25,CATGTCGC,0.15

row,Sequence,PBM E-score
1,ACGTCCCA,-0.314
2,AGCTAGGC,-0.212
3,CCAGTAAG,-0.066
4,GCTCCTAC,-0.151
5,GCGCAGCA,-0.0794
6,CTAAGCGA,-0.204
7,ATGACTAC,-0.269
8,GCAGCGAC,-0.0968
9,GGTTGCCA,-0.0475
10,GGACGGAA,-0.0852
11,AGCCCCCG,-0.356
12,CGCCAACG,0.0633
13,ACAAGATA,0.057
14,ACTCTGAT,0.205
15,AGCCGCCT,0.242
16,GGCACAGA,0.223
17,CGCGGACG,0.195
18,CCCTTCTA,-0.11
19,ACTGGCGC,0.239
